The values below come from PubChem BioAssay AID463173 (ICCB-Longwood Screening Facility, Harvard Medical School, 2010).

Each structure is given as a SMILES string. About 1,700 (3.3%) of roughly 52,000 compounds were called active. Cut-off read from the data, not from the text of the source: active = survival mostly below about 52% (no sharp cut-off); inactive = mostly above about 56%. This is one part of the list.

For this test, the system named is Wild type. Kind of test: growth inhibition of S. aureus wild type versus tarO mutant, primary screen, teichoic acid synthesis inhibitors, RN4220, OD600 (AID 463173). The conditions noted are these: S. aureus RN4220 wild type/DeltatarO growth, OD600, 18 h, stronger effect = lower value, screened at 18.75 µg/mL (by protocol).
`COc1cc(NC(=O)CN2Cc3ccccc3C2=O)cc(OC)c1OC`: the survival is inactive: 73%.
As for `COC(=O)c1[nH]c2ccc(F)cc2c1N`, the survival is inactive: 113%.
Consider `COc1ccccc1/C=C/c1nc(C#N)c(NCC(C)C)o1`, for which the survival is inactive: 65%.
For `CC1=[N+](CCO)c2ccccc2C1(C)C`, the survival was inactive: 110%.
As for `CCOCCn1cnc2sc(C(=O)Nc3ccccc3C(=O)OC)c(C)c2c1=O`, the survival is inactive: 131%.
Next, `CCOc1ccc(NC(=O)Cn2nc(Cc3ccncc3)c3ccccc3c2=O)cc1`: inactive: 108%; `COc1ccc(N2C(=O)CSC23C(=O)N(Cc2ccc(C)cc2)c2ccccc23)cc1Cl` (centres undefined): inactive: 135%; `CCOc1cccc(CC(=O)N2CCc3c([nH]c4ccccc34)C2c2ccc(SC)cc2)c1OCC` (centres undefined): inactive: 133%.
Next, `CC(C)Cn1c(=O)c2ccccc2n2c(CCC(=O)Nc3ccc(F)cc3)nnc12`: inactive: 84%; `CCCN(CCC)C(=O)c1nn(C)c2c1CSc1ccc(C)cc1-2`: inactive: 83%; `COc1ccc(-n2ccnc(NCc3ccccc3Cl)c2=O)cc1OC`: inactive: 71%.
Take `CCOC(=O)c1cc(-c2ccccc2)n(CCCC(=O)Nc2ccccc2C)c1C`: the survival is inactive: 97%.
As to `COc1ccc(C(=O)c2oc3ccccc3c2NC(=O)c2cccc(OC)c2)cc1`, the survival is inactive: 79%.
As to `COc1ccc(CNC(=O)c2sc3nc4n(c(=O)c3c2C)CCCCC4)cc1`, the survival was inactive: 86%.
Then `Clc1cccc(C2=NC(c3cccs3)=Nc3ccc(Br)cc3N2)c1`, with inactive: 79%; and `CCc1ccc(NC(=O)CN2C(=O)c3ccccc3Sc3ccc(C(=O)N4CCCC4)cc32)cc1`, with inactive: 82%; and `Cc1nc(-c2ccc(S(=O)(=O)Nc3ccc(Cl)c(C(F)(F)F)c3)cc2)co1`, with inactive: 66%.
`CCN(CC)CCOC(=O)c1ccc(NC(=O)c2cc3c(s2)-c2ccccc2OC3)cc1`: the survival was active: 5%.
Regarding `Cc1ccc2nc(COc3cccc(NC(=O)c4ccccc4Cl)c3)cc(=O)n2c1`, the survival is inactive: 78%.
Then `CCOc1ccccc1CNC(=O)c1cnc2sc(N(CC)CC)nn2c1=O`, with inactive: 71%.
Take `CC(C)CN(CCNC(=O)c1cc(-c2cccs2)nc2ccccc12)CC(C)C`: the survival was inactive: 68%.
Then `CCN(CC)CCOC(=O)c1ccc(Nc2c3c(nc4ccccc24)CCC3)cc1`, with inactive: 79%; and `COc1ccc(CNC(=O)C(CC(C)C)N2Cc3ccccc3C2=O)cc1` (centres undefined), with inactive: 134%; and `CCOc1ccc(N(C)C(=O)c2oc(=O)c3ccccc3c2-c2ccccc2)cc1`, with inactive: 56%.
Regarding `CCc1ccc(-c2nc(CS(=O)CC(=O)NCCc3ccc(C)cc3)c(C)o2)cc1` (centres undefined), the survival is inactive: 85%.
Regarding `CC(OC(=O)CN1C(=O)COc2ccccc21)C(=O)NCc1cccs1` (centres undefined), the survival was inactive: 100%.
With `CC(C)c1cnc2c(c1SCC(=O)NC(C)(C)C)c(=O)n(C)c(=O)n2C`, the survival is inactive: 80%.
For `Cc1ccc(N(CC(=O)N2CCN(c3cc(C)ccc3C)CC2)S(=O)(=O)c2c(C)nn(C)c2C)cc1`, the survival was inactive: 72%.
For `Cc1ccc(-c2nnc(N3CCOCC3)c3ccccc23)cc1S(=O)(=O)NCC1CCCO1` (centres undefined), the survival is inactive: 103%.
On to `CCn1cc2c(n1)-c1c(oc(C(=O)Nc3ccc(Br)cc3F)c1C)CC2`, for which the survival was inactive: 86%.
`O=C(O)CC1c2ccccc2CCN1C(=O)Nc1cc(Cl)ccc1Cl` (centres undefined): the survival was inactive: 78%.
For `Cc1ccc(CN(C(=O)c2ccc(OCC(C)C)cc2)c2ccccn2)o1`, the survival was inactive: 112%.
Take `CCOC(=O)c1noc2nc(C)n(CC(=O)Nc3cccc(OC)c3)c(=O)c12`: the survival is inactive: 120%.
Consider `CCCCC1CCC(C(=O)N2CC(=O)Nc3ccc(Br)cc3C2c2ccc(F)cc2)CC1` (centres undefined), for which the survival is inactive: 90%.
As for `COC(=O)COc1ccc(-c2nnc(Nc3ccc(O)cc3)c3ccccc23)cc1`, the survival is inactive: 138%.
Regarding `Cc1cc(Cl)ccc1-n1c(CCC(=O)O)ccc1-c1cccs1`, the survival was inactive: 79%.
With `CCc1c(C)c2ccc(O)c(CN3CCN(c4cc(Cl)ccc4C)CC3)c2oc1=O`, the survival is inactive: 80%.
Regarding `Cc1cccc2c1-c1sc(C(=O)Nc3ccc(F)cc3F)cc1CO2`, the survival is inactive: 91%.
With `CCc1ccc(S(=O)(=O)c2nnn3c2nc(N2CCN(c4ccccc4)CC2)c2cc(Cl)ccc23)cc1`, the survival was inactive: 97%.
`CCC(=O)OCc1cc(=O)n2nc(C3CC3)sc2n1`: the survival is inactive: 78%.
On to `Cc1ccc(NC(=O)CN2C(=O)COc3ccc(S(=O)(=O)N4CCCCCC4)cc32)c(C)c1`, for which the survival was inactive: 99%.
Regarding `Cc1ccc(CNC(=O)C(=O)Nc2c3c(nn2-c2ccc(F)cc2)CSC3)cc1`, the survival was inactive: 64%.
Next, `Cc1ccc(CNC(=O)c2ccc(N3CCCC3)c(NC(=O)Nc3ccc(C)cc3)c2)cc1`: inactive: 75%; `CCOC(=O)c1cccc(NC(=O)N2CCOCC2)c1`: inactive: 111%; `CCN(CC)C(=O)Cn1c(=O)n(CCCCCC(=O)NCc2ccc3c(c2)OCO3)c(=O)c2sccc21`: inactive: 134%.
Then `O=c1c2sc3ccccc3c2n(Cc2cccc(F)c2)c(=O)n1CCc1ccccc1`, with inactive: 80%; and `O=C(Cn1c(=O)oc2ccccc21)N1CCCCC1`, with inactive: 102%; and `Cn1cnnc1SCC(N)=O`, with inactive: 102%.
As to `CN(C(=O)Cn1nc(Cc2cccnc2)c2ccccc2c1=O)c1cccc(C(F)(F)F)c1`, the survival is inactive: 75%.
Then `CCCc1cc(=O)oc2c3c(ccc12)OCN(Cc1ccccc1OC)C3`, with inactive: 135%; and `Cc1cc(C)cc(OCC(=O)Nc2cccc3cccnc23)c1`, with inactive: 76%; and `COC(=O)c1ccccc1NC(=O)[C@H]1O[C@@H]2OC(C)(C)O[C@@H]2[C@H]2OC(C)(C)O[C@H]21`, with inactive: 100%.
In the case of `CCOC(=O)c1ccc(N2C(=O)c3n[nH]c(-c4ccco4)c3C2c2ccc(C(=O)OC)cc2)cc1` (centres undefined), the survival was inactive: 85%.
Then `O=C(c1ccc2c(c1)N(Cc1ccc(Cl)cc1)C(=O)c1ccccc1S2(=O)=O)N1CCCC1`, with inactive: 95%; and `CCCCCCC(=O)Nc1ccc2nc3c(=O)n(C)c(=O)n(C)c3nc2c1C`, with inactive: 86%.
Next, `CCCc1cnc2c(c1SCC(=O)NCc1ccc(C)cc1)c(=O)n(C)c(=O)n2C`: active: -6%; `CCCCOc1ccccc1C1CC(=O)Nc2ccc3ccccc3c21` (centres undefined): inactive: 96%; `Cc1ccc(C(=O)N2CCN(c3ccccc3)CC2)cc1`: inactive: 112%.
As for `CC(C)c1ccc(S(=O)(=O)N2CCN(Cc3cccc(F)c3)CC2)cc1`, the survival was inactive: 133%.
As for `COc1ccccc1CCNC(=O)Cc1c(C)c2cc(Cl)c(O)cc2oc1=O`, the survival is inactive: 76%.
Regarding `COc1ccc(C)c2sc(NC(=O)c3ccc(S(=O)(=O)N(C)C)cc3)nc12`, the survival was inactive: 81%.
With `CCOc1ccc(CNC(=O)c2oc3c(c2C)-c2nn(Cc4cccc(Cl)c4)cc2CC3)cc1`, the survival is inactive: 82%.
For the molecule `CCOC(=O)C1CCN(C(=O)c2cc3sc(C)cc3n2C)CC1`, the survival was inactive: 89%.
On to `CCCCN(CC)C(=O)CSc1nc2n[nH]c(C)c2c(=N)n1-c1ccc(CC)cc1`, for which the survival was inactive: 120%.
Next, `CCOc1ccc(-c2cccc(NS(=O)(=O)c3ccc(C)s3)c2)nn1`: inactive: 89%; `O=C(CN1C(=O)C2CCc3[nH]c4ccccc4c3C2C1=O)N1CCCC1` (centres undefined): inactive: 110%.
In the case of `COCCCn1c(=O)c2sccc2n2c(CCCC(=O)NCc3cccc(OC)c3)nnc12`, the survival was inactive: 98%.
As for `COc1ccc(NC(=O)CSc2ncc3c(n2)-c2ccccc2N(Cc2ccc(C)cc2)S3(=O)=O)cc1Cl`, the survival was inactive: 134%.
`Cc1ccc(N(C)C(=O)c2sc3nc4n(c(=O)c3c2C)CCCC4)cc1C`: the survival was inactive: 78%.
Regarding `CCOC(=O)C1CCC(CN(Cc2ccc(Cl)cc2)S(=O)(=O)c2cccc(Cl)c2C)CC1` (centres undefined), the survival was inactive: 82%.
`Cc1nc2nc(NC(=O)c3ccc(C(C)(C)C)cc3)[nH]n2c(=O)c1C`: the survival was inactive: 87%.
Regarding `CCCCOc1ccc(C(=O)Nc2ccc3c(c2)CCCN3C(=O)c2cccs2)cc1`, the survival was inactive: 84%.
`CCN1C(=O)c2ccccc2S(=O)(=O)c2ccc(C(=O)NCc3ccccc3)cc21`: the survival was inactive: 84%.
Turning to `O=C(CSc1ncc(-c2ccccc2)[nH]1)Nc1ccccc1`, the survival was inactive: 71%.
Next, `CCOc1ccc(NS(=O)(=O)c2c(C)nc3sc(C)c(C)n3c2=O)cc1`: inactive: 89%; `CCOC(=O)C1CCN(C(=O)c2ccccc2NC(=O)c2nsc3ccccc23)CC1`: inactive: 121%.
Take `O=C(Cn1cnc2ccccc2c1=O)NCc1ccccc1`: the survival was inactive: 105%.
With `O=C(CCC1N=C2c3ccccc3N=C(SCC(=O)Nc3cccc(Cl)c3)N2C1=O)NCc1ccco1` (centres undefined), the survival was inactive: 63%.
In the case of `CC1CCc2c(nc3ncnn3c2NCCc2ccccc2F)C1` (centres undefined), the survival is inactive: 108%.
Next, `CC(C)N(Cc1ccccc1)C(=O)c1nc(-c2ccc(Cl)cc2)n2c1CCCCC2`: inactive: 115%.
`CCc1ccc(OCC2c3cc(OC)c(OC)cc3CCN2C(=O)c2ccc(S(=O)(=O)N3CCCC3)cc2)cc1` (centres undefined): the survival is inactive: 68%.
Next, `CCOC(=O)c1cnc2c(ccc3ccccc32)c1Nc1ccc(N(C)C)cc1`: active: 0%; `CCn1cc(C(=O)NCCCOC(C)C)c(=O)c2cc(S(=O)(=O)N3CCOCC3)ccc21`: inactive: 131%; `COc1cccc(NC(=O)c2c(C)nn(-c3cccc(C)c3)c2-n2cccc2)c1`: active: 0%.
Regarding `COc1cccc(CN2C(=O)CN(C3CCCCC3)C(=O)C2c2ccc(OC(C)C)c(OC)c2)c1` (centres undefined), the survival is inactive: 89%.
Turning to `O=C(Cn1ccc2cc(S(=O)(=O)N3CCCCCC3)ccc21)NCc1ccccc1Cl`, the survival was inactive: 73%.
Take `Cc1cc(NC(=O)N2CCC(CN3CCCCCC3)CC2)ccc1Br`: the survival was inactive: 77%.
For `COC(=O)c1ccc2c(=O)n(CCCCCC(=O)NCCc3ccccc3)c(=O)[nH]c2c1`, the survival was inactive: 127%.
On to `N#Cc1ccc(-c2cccnc2)n(CC(=O)N2CC(=O)Nc3ccccc32)c1=O`, for which the survival is inactive: 119%.
